In article PMC4336329 (PLoS ONE, 2015):
Screen size: about 310,000 compounds; about 2,200 (0.71%) showed an effect of 50% or more. The effect is printed as a negative number. The list shows a part of the results.

Target: human ether-à-go-go-related gene (hERG) potassium channel (human, UniProt Q12809)
Test: primary screen, population patch clamp on CHO cells stably expressing hERG

Chain of human ether-à-go-go-related gene (hERG) potassium channel (Q12809 whole entry, looked up): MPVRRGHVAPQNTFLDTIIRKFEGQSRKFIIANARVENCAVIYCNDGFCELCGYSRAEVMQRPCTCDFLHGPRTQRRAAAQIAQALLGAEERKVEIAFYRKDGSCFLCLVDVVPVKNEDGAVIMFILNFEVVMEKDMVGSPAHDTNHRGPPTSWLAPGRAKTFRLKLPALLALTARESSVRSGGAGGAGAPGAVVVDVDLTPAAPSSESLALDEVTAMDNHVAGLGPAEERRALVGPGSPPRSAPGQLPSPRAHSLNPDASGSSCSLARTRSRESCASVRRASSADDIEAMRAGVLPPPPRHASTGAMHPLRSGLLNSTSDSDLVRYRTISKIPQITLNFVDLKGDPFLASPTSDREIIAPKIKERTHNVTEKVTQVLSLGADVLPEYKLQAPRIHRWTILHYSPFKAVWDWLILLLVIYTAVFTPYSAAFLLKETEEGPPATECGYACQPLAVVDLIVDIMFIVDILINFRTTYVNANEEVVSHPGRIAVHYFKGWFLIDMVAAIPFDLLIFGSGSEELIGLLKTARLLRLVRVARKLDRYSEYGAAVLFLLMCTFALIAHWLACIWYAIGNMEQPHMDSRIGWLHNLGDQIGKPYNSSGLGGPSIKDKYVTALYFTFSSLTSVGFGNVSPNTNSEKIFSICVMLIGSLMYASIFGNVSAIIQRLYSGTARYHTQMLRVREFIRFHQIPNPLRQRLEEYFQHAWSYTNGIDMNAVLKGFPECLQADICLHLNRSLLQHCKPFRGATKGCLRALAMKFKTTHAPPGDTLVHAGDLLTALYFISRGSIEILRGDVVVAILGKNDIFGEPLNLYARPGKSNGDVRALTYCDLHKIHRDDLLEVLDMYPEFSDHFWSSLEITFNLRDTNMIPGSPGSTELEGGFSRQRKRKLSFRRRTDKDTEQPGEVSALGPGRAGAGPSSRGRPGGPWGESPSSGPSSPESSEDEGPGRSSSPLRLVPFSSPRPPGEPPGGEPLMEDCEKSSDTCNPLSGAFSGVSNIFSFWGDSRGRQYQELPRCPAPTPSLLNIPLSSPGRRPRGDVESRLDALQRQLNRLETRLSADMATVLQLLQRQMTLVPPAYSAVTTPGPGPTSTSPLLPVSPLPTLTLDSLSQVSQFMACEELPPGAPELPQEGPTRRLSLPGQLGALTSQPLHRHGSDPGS

| Structure (SMILES) | hERG current change (%, negative = inhibition) at 1uM |
| --- | --- |
| COc1ccc(C(=O)N2CCCC(N3CCN(c4ccccc4OC)CC3)C2)c(OC)n1 (centres unmarked) | 16.6% |
| CCOC(=O)COc1nc2c(c(-c3ccco3)c1C#N)CCc1ccccc1-2 | 8.03% |
| O=C(CCN1C(=O)C2CC=CCC2C1=O)Nc1nccs1 (centres unmarked) | 3.75% |
| COc1ccc(OC)c(-n2c(CN3CCC(C(N)=O)CC3)nc3ccccc3c2=O)c1 | 7.22% |
| O=C1N/C(=N/N=C/c2ccccc2)SC1(c1ccccc1)c1ccccc1 | 9.93% |
| COc1ccc(/C=C/C(=O)NC(=S)NNC(=O)c2cc(OC)c(OC)c(OC)c2)cc1OC | 1.35% |
| CC1CCN(S(=O)(=O)c2cccc(C(=O)N3CCN(c4ccc(F)cc4)CC3)c2)CC1 | -14% |
| Cc1ccc(C)c(NC2=C(Cl)C(=O)OC2OC(=O)c2ccco2)c1 (centres unmarked) | 11.7% |
| O=C(O)c1ccc(/C=N/NC(=S)NCCN2CCOCC2)cc1 | 6.73% |
| CC(C)(C)c1ccc(C2C3=C(CCCC3=O)NC3=C2C(=O)c2ccccc23)cc1 (centres unmarked) | 12.1% |
| O=C(O)c1ccc(NC(=S)NC2CCCCC2)cc1 | 12.2% |
| Nn1c(CSc2ccccn2)nc2ccccc2c1=O | 7.56% |
| COc1ccccc1-c1nnc(SCC(=O)N2CCCCC2)o1 | 10.7% |
| O=C(NCCc1cccnc1)C1CCC(=O)N(Cc2cccc(C(F)(F)F)c2)C1 (centres unmarked) | -2.13% |
| COc1cc(C(=O)NCC(=O)N/N=C/c2cccc(OC(=O)c3ccco3)c2)cc(OC)c1OC | 1.44% |
| O=C(O)c1ccc(NS(=O)(=O)c2ccc(N3C(=O)CCC3=O)cc2)cc1 | 8.55% |
| CCOc1nc(NC(C)C)nc(NC(C)C)n1 | 4.56% |
| CC(C)CC1c2[nH]c3ccccc3c2CCN1C(=O)C1CCOCC1 (centres unmarked) | 9.82% |
| CCn1c(SC(C)C(=O)Nc2ccc(N3CCOCC3)cc2)nnc1C1CC1 (centres unmarked) | 6.87% |
| CCS(=O)(=O)n1nc(-c2ccco2)nc1SC | 7.34% |
| O=C(COc1ccc(Br)cc1)Nc1ccncc1 | 6.95% |
| O=S(=O)(c1ccccc1)c1nc(-c2ccco2)oc1NCc1ccco1 | 8.3% |

| Structure (SMILES) | hERG current change (%, negative = inhibition) at 1uM |
| --- | --- |
| CCn1nnc(NC(=O)Cc2ccc(Cl)cc2)n1 | 6.04% |
| CCCCn1c(SCC(=O)Nc2nnc(C)s2)nnc1-c1ccncc1 | 14.6% |
| C=CCn1c(-c2cccc3ccccc23)n[nH]c1=S | -5.02% |
| COC(=O)c1cn(C(=O)c2ccc(OC)c(OC)c2)c2ccccc12 | 7.78% |
| N/C(=N\OS(=O)(=O)c1ccc(Cl)cc1)c1cccnc1 | 8.36% |
| COc1cccc(N2CC(NC(=O)C(=O)c3c(C)[nH]c4ccccc34)CC2=O)c1 (centres unmarked) | 16.3% |
| COc1ccc(N2CCN(C(=O)COCc3cc(-c4ccc5c(c4)OCO5)on3)CC2)cc1 | 7.52% |
| COc1cc(/C=N/Nc2ncc(C(F)(F)F)cc2Cl)cc(OC)c1O | -32.8% |
| Cc1ccc(NC(=O)CSc2n[nH]c(N)n2)cc1S(=O)(=O)N1CCOCC1 | 3.69% |
| O=C(O)CCC(=O)N1CCC(C(=O)c2cccc(Cl)c2)CC1 | 21.7% |
| COc1ccccc1C(=O)N=C1NC(=O)CC2C(=O)NCCN12 (centres unmarked) | -1.15% |
| COc1ccc(NC(=O)Cc2ccsc2)cc1S(=O)(=O)N1CCCCC1 | -0.987% |
| CS(=O)(=O)c1ccc(-c2csc(-c3cccnc3)n2)cc1 | 10.4% |
| Cc1cccc(C)c1OCC(=O)Nc1ccccc1N1CCCCC1 | 6.66% |
| O=c1[nH]cc(S(=O)(=O)N2CCCc3ccccc32)c(=O)[nH]1 | 1.85% |
| CCCn1c(SCC(=O)Nc2cc(Cl)ccc2Cl)n[nH]c1=O | 0.489% |
| COc1ccccc1-c1cc(C(F)(F)F)nc(S(=O)(=O)CCCC(=O)NCc2ccc(F)cc2)n1 | -24.1% |
| CCCCn1c(N)c(N(CC(C)C)C(=O)C2CC(=O)N(c3ccccc3C(C)CC)C2)c(=O)[nH]c1=O (centres unmarked) | 7.75% |
| O=C(NCc1ccc2c(c1)OCO2)c1ccc(CS(=O)(=O)c2ccc(Br)cc2)o1 | 0.797% |
| C=CCN1CC(c2nc3ccccc3n2Cc2cccc3ccccc23)CC1=O (centres unmarked) | 2.48% |
| Cc1ccccc1OCC(=O)Nc1ccc(N2CCOCC2)cc1N1CCOCC1 | 4.91% |
| CCOC(=O)c1ccc(S(=O)(=O)N2CCN(CC(=O)NC(=O)NC3CCCCC3)CC2)cc1 | 3.86% |

| Structure (SMILES) | hERG current change (%, negative = inhibition) at 1uM |
| --- | --- |
| Nc1nc(SCc2nc(-c3ccccc3)no2)[nH]c(=O)c1-c1ccccc1 | -12.1% |
| Cc1cc(C)n2nc(S(=O)(=O)N(CC(C)C)CC(C)C)nc2n1 | 8.03% |
| CN(C)C1=NC[C@H](Cc2ccccc2)N1CCC1CCCC1 | -19.7% |
| Cc1c(NC(=O)Cn2nc(C(F)(F)F)c3c2CCCC3)c(=O)n(-c2ccccc2)n1C | 9.76% |
| COc1ccc2oc(C(=O)OCC(=O)N(C)C3CCCCC3)c(C)c2c1 | 14.5% |
| Cc1ccc(NC(=O)COc2ccc(N(C)S(=O)(=O)c3ccc(F)cc3)cc2)cc1 | 7.43% |
| Cc1oc2c(C)c3oc(=O)c(CCC(=O)NCCCN4CCCC4=O)c(C)c3cc2c1C | -8.83% |
| COc1ccccc1NC(=O)c1ccc(-c2nn(C)c(=O)c3ccccc23)cc1 | -9.68% |
| CCOC(=O)c1ccc(S(=O)(=O)Nc2nc3cc(S(=O)(=O)NC4=NCCCCC4)ccc3s2)cc1 | 9.26% |
| CC1(O)C(=O)C=C2C=C(C3CC3)OC=C2C1=O (centres unmarked) | 19.2% |
| COC(=O)c1cc(C#N)c(NCc2ccc(Cl)cc2Cl)nc1C | -9.23% |
| CC(=O)c1ccccc1NCC(=O)Nc1ccc(C)cc1 | 13.7% |
| O=C(Nc1ccc2c(c1)OCCO2)N1CCOCC1 | 11.4% |
| CCOc1ccc(/C=N/NC(=O)c2ccoc2C)cc1OC | 15.5% |
| CC1CC(C)CN(c2nc3c(c(=O)n(C)c(=O)n3C)n2C)C1 (centres unmarked) | 11.1% |
| Cc1ccccc1NC(=O)c1cccc(Cn2cc(Br)c([N+](=O)[O-])n2)c1 | 1.01% |
| O=C(O)C(F)(F)F.O=C1C(Cc2ccccc2)Nc2ncnc(N3CCN(c4ccccc4)CC3)c2N1Cc1ccc(Cl)cc1 (centres unmarked) | 7.08% |
| COc1ccc(CCNC(=O)C23CCC(C)(C(=O)C2=O)C3(C)C)cc1OC (centres unmarked) | 1.99% |
| O=C(OCN1C(=O)c2ccccc2C1=O)C1CCCCC1 | -0.118% |
| O=C(Cn1c(SCC(=O)N2CCc3ccccc32)nc2ccccc21)NC1CCCC1 | 21.1% |
| CCOc1cc(CNCCSc2nnnn2C)cc(Br)c1OCc1ccccc1.Cl | -5.73% |
| Cc1ccc(NC(=O)CCC(=O)NNC(=O)c2cccc([N+](=O)[O-])c2)cc1C | -3.08% |

| Structure (SMILES) | hERG current change (%, negative = inhibition) at 1uM |
| --- | --- |
| CCOc1cc(/C=C2\SC(=S)N(NS(=O)(=O)c3ccccc3)C2=O)ccc1O | 22.1% |
| COc1cccc(-c2c(C(=O)N/N=C/c3ccc(C)o3)nnn2-c2nonc2N)c1 | -1.7% |
| O=C(O)c1cc(N2C(=O)CCC2=O)ccc1NCc1cccnc1 | 17.1% |
| Cc1[nH]n(-c2ccccc2)c(=O)c1C1(C(F)(F)F)C(=O)N(c2ccc(F)cc2)C2=C1C(=O)CC(C)(C)C2 (centres unmarked) | 5.76% |
| CN(C)c1ccc(P(=S)(N(C)C)N(C)C)cc1 | 10.7% |
| N[C@@H](CCC(=O)N[C@@H](CSN=O)C(=O)NCC(=O)O)C(=O)O | 0.457% |
| COc1ccccc1NC(=O)N1CCCC1C(=O)Nc1ccc2c(c1)OCCO2 (centres unmarked) | 5.44% |
| Cc1cnc(C(=O)OCC(=O)c2cc(C)n(C)c2C)cn1 | 10.1% |
| COc1ccc(CNC(=O)[C@H](C)NC(=O)C2CCN(C(=O)[C@@H](N)Cc3ccccc3)CC2)cc1 | 4.82% |
| COc1ccccc1N1CCN(CC(=O)c2c(N)n(C)c(=O)n(C)c2=O)CC1 | 4.93% |
| CSCC[C@H](NC(=O)OC(C)(C)C)C(=O)N1CCC(C(=O)N[C@@H](Cc2c[nH]c3ccccc23)C(=O)O)CC1 | 24.6% |
| Cc1nn(CC(=O)Nc2ccccn2)c(=O)c2ccccc12 | 11.1% |
| N#Cc1c(/N=C\c2ccc(O)c([N+](=O)[O-])c2)sc2c1CCCC2 | 13.1% |
| O=C1c2cccnc2C(O)N1Cc1ccco1 (centres unmarked) | 5.47% |
| CCN(CC)C(=O)c1nc[nH]c1C(=O)N(CC)CC | 13.1% |
| O=C(Nc1ccccc1-c1ccccc1)NC1CC2CCCC(C1)N2CCc1ccccc1 (centres unmarked) | 2.01% |
| COC(=O)c1cn(NC(=O)C2CCC(C(C)(C)C)CC2)c(=O)c2ccccc12 (centres unmarked) | 13.5% |
| CC(=O)Nc1cccc(C(=O)/C=C/c2ccc(Br)cc2)c1 | 3.85% |
| Cc1nnc(SCC(=O)Nc2cc(C(N)=O)cc(C(N)=O)c2)n1-c1ccccc1 | 17.6% |
| CCNC(=S)NNC(=O)c1ccccn1 | 7.29% |
